Patent US20150037339A1 (Regeneron, published 2015)

Key:
Experiment in all cases: SPR (Biacore 4000), captured on anti-human Fc, 200 nM ligand injected, 37 C
hBMP2 = target: T1, hBMP2 (human, UniProt P12643 283-396)
T1 construct: Bought protein; also called BPM2
T1 sequence (looked up): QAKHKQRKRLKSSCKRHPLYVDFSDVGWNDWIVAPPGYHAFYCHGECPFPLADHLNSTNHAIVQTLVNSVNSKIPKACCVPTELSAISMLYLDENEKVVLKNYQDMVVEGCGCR
Protocol: (§1) For the binding experiment, a Biacore 4000 instrument was used. […] All Biacore binding studies were performed in HBS-T running buffer (0.01 M HEPES pH 7.4, 0.5 M NaCl, 3 mM EDTA, 0.5 mg/ml bovine serum albumin, 0.05% v/v Surfactant P20). […] All binding measurements were performed at 37° C. […] Over the captured antibody surface was injected the TGF-beta family ligands through concentrations ranging from 3.1 nM to 200 nM.

Activin B = target: T2, Activin B (human, UniProt P09529 293-407)
T2 construct: Homodimer of two betaB subunits; bought (R&D Systems #659-AB)
T2 chain: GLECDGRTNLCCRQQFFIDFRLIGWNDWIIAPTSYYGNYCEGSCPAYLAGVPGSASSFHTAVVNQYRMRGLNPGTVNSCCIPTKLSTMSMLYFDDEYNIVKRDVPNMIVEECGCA
Protocol: as §1

hBMP6 = target: T3, hBMP6 (human, UniProt P22004 382-513, limits assumed)
T3 construct: Bought protein
T3 sequence (looked up): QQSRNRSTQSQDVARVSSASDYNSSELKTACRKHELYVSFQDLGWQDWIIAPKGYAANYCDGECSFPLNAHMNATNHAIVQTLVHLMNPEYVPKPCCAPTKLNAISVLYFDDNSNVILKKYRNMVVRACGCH
Protocol: as §1

hBMP9 = target: T4, hBMP9 (human, UniProt Q9UK05 320-429)
T4 construct: Bought protein
T4 sequence (looked up): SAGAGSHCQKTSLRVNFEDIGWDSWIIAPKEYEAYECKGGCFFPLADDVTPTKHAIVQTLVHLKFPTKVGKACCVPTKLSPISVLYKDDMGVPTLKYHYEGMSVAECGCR
Protocol: as §1

hBMP10 = target: T5, hBMP10 (human, UniProt O95393 317-424)
T5 construct: Bought protein
T5 sequence (looked up): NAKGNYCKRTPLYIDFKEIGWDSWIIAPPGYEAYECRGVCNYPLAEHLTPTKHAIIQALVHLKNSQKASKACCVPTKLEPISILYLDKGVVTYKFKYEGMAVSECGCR
Protocol: as §1

hBMP4 = target: T6, hBMP4 (human, UniProt P12644 293-408)
T6 construct: Bought protein
T6 sequence (looked up): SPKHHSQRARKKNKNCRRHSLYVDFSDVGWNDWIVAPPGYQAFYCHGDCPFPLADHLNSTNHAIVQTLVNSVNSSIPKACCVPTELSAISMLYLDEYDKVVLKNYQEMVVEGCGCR
Protocol: as §1

GDF8 = target: T7, GDF8 (human, UniProt O14793 267-375)
T7 construct: Bought (R&D Systems #788-G8); also called hGDF8; growth and differentiation factor-8
Protocol: as §1

Activin AB = target: T8, Activin AB (human, UniProt P08476 311-426; P09529 293-407)
T8 construct: Heterodimer of one betaA and one betaB subunit; bought (R&D Systems #1006-AB-005 / #1066-AB)
T8 chain 1: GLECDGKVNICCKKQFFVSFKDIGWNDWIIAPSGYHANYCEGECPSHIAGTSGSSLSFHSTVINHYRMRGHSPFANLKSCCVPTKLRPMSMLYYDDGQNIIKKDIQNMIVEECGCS
T8 chain 2: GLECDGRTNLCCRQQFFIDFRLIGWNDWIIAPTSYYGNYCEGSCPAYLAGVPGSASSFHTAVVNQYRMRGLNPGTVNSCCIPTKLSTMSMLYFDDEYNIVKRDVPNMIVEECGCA
Protocol: as §1

Activin AC = target: T9, Activin AC (human, UniProt P55103 237-352)
T9 construct: Heterodimer of one betaA and one betaC subunit; bought (R&D Systems #4879-AC)
T9 sequence 1: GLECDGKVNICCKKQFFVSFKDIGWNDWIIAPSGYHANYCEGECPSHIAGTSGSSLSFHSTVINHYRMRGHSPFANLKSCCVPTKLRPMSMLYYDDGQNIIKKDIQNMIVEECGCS
T9 sequence 2: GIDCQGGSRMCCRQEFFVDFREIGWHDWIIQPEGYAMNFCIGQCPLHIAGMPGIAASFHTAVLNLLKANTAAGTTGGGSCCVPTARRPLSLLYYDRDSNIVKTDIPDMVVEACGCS
Protocol: as §1

GDF11 = target: T10, GDF11 (human, UniProt O95390 299-407)
T10 construct: Bought protein; also called hGDF11
Protocol: as §1

hBMP7 = target: T11, hBMP7 (human, UniProt P18075 293-431)
T11 construct: Bought protein
T11 sequence (looked up): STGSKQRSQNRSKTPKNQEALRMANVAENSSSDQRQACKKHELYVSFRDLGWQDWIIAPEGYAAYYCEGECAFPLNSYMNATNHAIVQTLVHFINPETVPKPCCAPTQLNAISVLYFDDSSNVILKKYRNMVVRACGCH
Protocol: as §1

Activin A = target: T12, Activin A (human, UniProt P08476 311-426)
T12 construct: Homodimer of two betaA subunits; bought (R&D Systems #338-AC); also called inhibin-betaA dimer
T12 sequence: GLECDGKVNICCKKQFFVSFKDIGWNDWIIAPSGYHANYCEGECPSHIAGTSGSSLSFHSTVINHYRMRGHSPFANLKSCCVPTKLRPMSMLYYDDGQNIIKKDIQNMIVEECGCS
Protocol: as §1

Chain of GDF11 (O95390 299-407 limits assumed): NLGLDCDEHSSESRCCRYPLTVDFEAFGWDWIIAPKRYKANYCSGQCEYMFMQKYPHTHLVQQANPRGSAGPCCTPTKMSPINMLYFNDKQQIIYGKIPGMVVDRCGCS

B1: Control 4 (Activin Type IIB receptor-Fc fusion molecule) (Fc fusion)
chain: EAETRECIYYNANWELERTNQSGLERCEGEQDKRLHCYASWANSSGTIELVKKGCWLDDFNCYDRQECVATEENPQVYFCCCEGNFCNERFTHLPEAGGPEVTYEPPPTAPSG[omitted - human IgG1 Fc]
notes: also called ActR2B-hFc; ActRIIB-hFc
Q: Which “binding response (resonance units) for 200 nM ligand” value (“binding response (resonance units)” below) (hBMP2) does the source give for B1 here?
A: The value was 36.9 RU.

Q: What about the “binding response (resonance units)” value (Activin B) of the same binder?
A: The value was 68 RU.

Q: And the “binding response (resonance units)” value (hBMP6)?
A: The value was 86.3 RU.

Q: What about the “binding response (resonance units)” value (hBMP9) of the same binder?
A: Its value is 32.3 RU.

Q: And the “binding response (resonance units)” value (hBMP10)?
A: Its value is 34.2 RU.

Q: What about the “binding response (resonance units)” value (hBMP4) of the same binder?
A: The value was 26.4 RU.

Q: What about the “binding response (resonance units)” value (GDF8) of the same binder?
A: Its value is 25.8 RU.

Q: What about the “binding response (resonance units)” value (Activin AB) of the same binder?
A: The value was 59.5 RU.

Q: And the “binding response (resonance units)” value (Activin AC)?
A: Its value is 59.4 RU.

Q: What about the “binding response (resonance units)” value (GDF11) of the same binder?
A: Its value is 24.2 RU.

Q: And the “binding response (resonance units)” value (hBMP7)?
A: Its value is 64.2 RU.

Q: And the “binding response (resonance units)” value (Activin A)?
A: Its value is 70.9 RU.
